Laboratory results published in the supplement of paper PMC3334620.
Whole data set: some 33,000 sequences, median “E-score (-0.5 to 0.5)” near -0.021, cut for the highest 2% near 0.32. The list shows a part of the results.

What follows are sequences tested against T1, Zap1 (UniProt P47043) (assay: PBM E-score (8-mer binding enrichment) (E-score (-0.5 to 0.5)); higher = stronger / more preferred TF binding; most listed sequences are background and not binding sites). Settings: protein concentration: 200 nM; construct: GST-full length.
T1 sequence: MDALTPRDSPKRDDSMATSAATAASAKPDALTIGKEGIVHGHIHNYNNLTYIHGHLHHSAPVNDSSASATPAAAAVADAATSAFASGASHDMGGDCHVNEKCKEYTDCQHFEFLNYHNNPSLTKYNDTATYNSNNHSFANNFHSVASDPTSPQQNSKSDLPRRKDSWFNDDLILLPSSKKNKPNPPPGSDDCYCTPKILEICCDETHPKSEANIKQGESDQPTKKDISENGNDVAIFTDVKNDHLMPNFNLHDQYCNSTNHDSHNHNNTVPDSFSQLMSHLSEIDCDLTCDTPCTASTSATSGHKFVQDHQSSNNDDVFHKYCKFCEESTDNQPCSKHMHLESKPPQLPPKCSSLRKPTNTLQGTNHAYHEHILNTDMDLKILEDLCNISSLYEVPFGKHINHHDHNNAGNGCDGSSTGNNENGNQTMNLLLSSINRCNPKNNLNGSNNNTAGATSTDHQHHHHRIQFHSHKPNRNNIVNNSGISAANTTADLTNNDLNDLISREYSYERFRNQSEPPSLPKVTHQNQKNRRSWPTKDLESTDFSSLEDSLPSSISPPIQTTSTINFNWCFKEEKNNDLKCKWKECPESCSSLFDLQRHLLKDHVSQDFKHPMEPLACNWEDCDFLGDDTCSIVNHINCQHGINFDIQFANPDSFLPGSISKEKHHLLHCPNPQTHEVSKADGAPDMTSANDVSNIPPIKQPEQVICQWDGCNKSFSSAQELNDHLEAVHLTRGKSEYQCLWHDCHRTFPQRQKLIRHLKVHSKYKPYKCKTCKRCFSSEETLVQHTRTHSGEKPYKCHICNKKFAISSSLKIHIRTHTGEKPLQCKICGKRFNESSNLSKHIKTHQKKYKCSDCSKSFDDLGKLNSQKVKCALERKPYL
Description: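 Universal 'all 10-mer' protein binding microarrays (Agilent AMADID 015681) probed with GST-tagged S. cerevisiae TFs (full-length or DBD) made by in vitro transcription/translation (PURExpress), about 100-200 nM. Bound TF was detected with fluorescent anti-GST. Each ungapped 8-mer (which stands for itself and its reverse complement) is scored by the PBM enrichment score (E-score), a modified Wilcoxon-Mann-Whitney statistic from -0.5 to +0.5, computed with the Universal PBM Analysis Suite. Scale: above 0.35 generally sequence-specific binding.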

Sequence	PBM E-score
AAATCAAT	-0.0755
CGGCCCCG	-0.166
CTATCTAA	0.0707
GCAGGCAA	-0.144
AGTCCAGG	-0.167
CAACCGCG	0.282
AACAAGAT	0.0149
CGATGCAC	-0.186
ACAGGTAC	0.314
TATCAGGA	0.0231
AAATAGTT	0.165
AACGCGCC	-0.0616
CAAACATC	0.0154
GCGGACGC	-0.191
CCCATTGC	-0.0366
CTCGACTC	-0.204
GAAATTCC	-0.0737
ATGGTAAG	-0.124
ACCTACAA	0.178
CACCCTAA	0.369
GCGCTCAA	-0.223
GGATGGAC	-0.124
CATTCTGA	0.0941
ACAGTTCA	0.0211
ATCACTGC	-0.0971

Sequence	PBM E-score
CGCCTCCA	-0.0322
CTACCCGC	0.244
CCTCCCGA	-0.0955
GAACGATC	-0.0462
TCACTGGA	-0.0942
GTCTGTAA	0.173
CACGGCGG	-0.052
CTATACGA	-0.0396
ACCTATCA	0.0331
ACCTAGTA	-0.06
AAGATAAG	0.0849
TTCTGCAA	0.174
ATACGCAT	-0.00655
ATATGCTC	-0.22
CCTGGTCA	0.0679
CACGCATG	-0.13
AAGGCCCA	-0.0609
AGATCGTG	-0.0746
AATCATCT	-0.191
CCCCCAGC	-0.328
CATACCGA	-0.0604
AGACCTGC	-0.153
AGTCTGCC	-0.219
AAGACTTA	-0.0811
AACCGAAA	0.279

Sequence	PBM E-score
GGTCCCAA	0.0405
CGACTGGA	-0.193
CCATATGG	0.0922
AAGCAGGA	-0.00928
GGCCTTAA	0.319
TCTGCCAA	-0.0873
TACCGGTA	0.355
GGGCTGTA	-0.228
AATGCGGA	-0.165
AGACGATA	0.0346
CTGAGTCA	-0.153
AACCAAGT	0.271
ATGAGAGA	-0.0163
ATGTGACC	0.268
AGCTAGAT	-0.0318
GGCCGTAA	0.169
ATAGGAGA	-0.253
CCCCTTGA	0.119
TAGGTTCA	0.175
CGTCGGTC	-0.15
AAGTGTCG	-0.00573
ATCCACAC	0.0343
TACTTCCA	-0.0294
GAGCACGA	-0.0755
CGCGCTAG	-0.0302

Sequence	PBM E-score
ACTAATCG	0.0272
GATGATCA	0.0767
GCCATACA	0.135
ACTAGGGG	-0.0537
TGCCTACA	-0.254
CGTCGTGC	-0.039
AGGTATAA	0.317
GTGGTTAA	0.406
GCGGGGAC	-0.0999
AATGTAAA	0.159
GTTAGCTA	-0.0983
GTTAAGCA	0.139
CCGGAATA	0.0339
ATCAAATG	-0.0295
GCAGACAC	-0.0371
AGAATGCA	-0.0612
CGGCATGC	-0.02
CGAAAGCA	-0.0457
CATTGTCA	0.0486
GACTTCTC	-0.184
ATAGGGTC	0.272
AGGTAGAC	0.18
ACCATTAC	0.241
CCAACCCC	0.224
CAACGTGG	-0.00609

Sequence	PBM E-score
TGCACCCA	-0.0158
ATTCACTA	0.0664
GAGCGGAC	-0.34
TATATCGA	0.0316
GATGTGGC	-0.153
CTCGCGTA	-0.00405
CCAGGACC	0.0792
GTGTACCA	0.0904
CGTAAGAC	-0.0865
AAAGCCCT	-0.194
GCGTCCCA	0.0581
TAGTATAA	0.242
ATCTGGGG	-0.155
TACGCAGA	-0.0445
TGAAACAA	0.168
AACCTCCG	0.182
CGAGGCCC	-0.14
GGACAACC	0.178
ATCCATGC	-0.164
CCAACGTA	0.0537
CCCTGAGA	-0.00467
ACTGTGCC	-0.0879
AAGATCCG	-0.306
GGTTTAGA	0.0494
CTAACGAC	-0.0559

Sequence	PBM E-score
AACACTAG	0.00938
ACGTGTAT	-0.152
ATACGGCA	0.0784
CCGCGCTA	0.067
AATTGCAT	-0.0714
ATCCTCTG	-0.0582
CTAGATAA	0.141
CGAAGTAA	-0.0171
ATGGCCCC	0.12
GCGATACA	-0.119
ACATCTGA	-0.168
ATATCAAT	0.0604
CAGAATTA	-0.189
CAGTGGCA	-0.0724
AGGGATGA	-0.195
ACAAATGT	0.161
GAGGAAGA	-0.174
CAGCAAGG	0.101
GTTCCATA	0.0649
TTCCAAAA	0.144
AACGACTG	0.0117
CGCGGGTA	0.207
ATACTAGA	0.222
CACCTACG	-0.273
AGCTGCAT	-0.302

Sequence	PBM E-score
AGTAGGAT	-0.181
AAATTTCC	-0.0322
ATGAGTTA	0.133
ATTGTGCC	-0.0584
AGTGGTAG	0.00106
CAAAGTCG	-0.148
GCGCGAAC	0.00099
ATGGTAGG	0.0302
CAGTACGA	0.16
CTAGATTA	0.0484
ACCGAAAC	0.179
TCCAACGA	-0.166
CTTAGGGC	0.0876
AACGGGAT	-0.201
CTATAAAC	0.00765
CTACGCCC	-0.139
TAGTTCGA	-0.00397
ACCCTTTG	0.345
AGTAGGGC	-0.0911
CCACCAGG	0.0565
CGTTTTAC	-0.0753
GTGAGTAA	0.00798
